# Measurements from the antibiotic and cytotoxicity screens of Wong et al. (2023).
# This is one part of the list.
# Test system: HSkMC (human skeletal muscle cells)
# Assay: cytotoxicity call (relative viability < 0.9)
# Details: 10 µM
row,Structure (SMILES),cytotoxicity call
1,CC(=O)C1CCC2C3CCC4=CC(=O)CCC4(C)C3CCC12C (stereo unspecified),inactive
2,CC12CCC(=O)C=C1C=CC1C2CCC2(C)C1CCC21CCC(=O)O1 (stereo unspecified),inactive
3,COc1c(-c2coc3cc4c(cc3c2=O)CC(O)C(C)(C)O4)ccc2c1C=CC(C)(C)O2 (stereo unspecified),active
4,O=C(O)C[C@@H]1CC[C@@H]2[C@H](COC[C@@H](O)CN2S(=O)(=O)c2ccc(F)cc2)O1,inactive
5,C[C@H]1CN(C(=O)CSc2nnc3c4ccccc4n(Cc4cccc(Cl)c4)c3n2)CCN1C(=O)c1ccccc1F,inactive
6,CCCNC(=O)N1C[C@H](C)[C@@H](OC)CN(C)C(=O)c2ccc(NS(=O)(=O)CC(F)(F)F)cc2OC[C@@H]1C,inactive
7,O=C(CCCCCC(=O)N/N=C/[C@H](O)[C@@H](O)[C@H](O[C@@H]1O[C@H](CO)[C@H](O)[C@H](O)[C@H]1O)[C@H](O)CO)NO,inactive
8,O=C(O)c1cc2ccccc2c(Cc2c(O)c(C(=O)O)cc3ccccc23)c1O.OCCOCCN1CCN(C(c2ccccc2)c2ccc(Cl)cc2)CC1,inactive
9,C[C@@H]1CCCCO[C@H](CN(C)S(=O)(=O)c2ccccc2)[C@H](C)CN([C@@H](C)CO)C(=O)c2cc(NC(=O)Nc3cccc4ccccc34)ccc2O1,inactive
10,CC(C)NC(=O)Nc1ccc2c(c1)C(=O)N([C@@H](C)CO)C[C@@H](C)[C@@H](CN(C)S(=O)(=O)c1cccs1)O2,inactive
11,CCCN(C)C[C@H]1OCCCC[C@@H](C)Oc2ccc(NC(=O)Nc3ccccc3)cc2C(=O)N([C@H](C)CO)C[C@@H]1C,inactive
